# Out of some 46,000 compounds screened, about 60 (0.1%) were called active. Not shown: some 3% with an inconclusive outcome. The call rests on the fitted dose curve; in most records, active means well fitted inhibition curve with a large enough effect; inconclusive means small, poorly fitted or top-dose-only effect; inactive means no such curve, though single readings can be large or run the other way. The list shows a part of the results.
# Experiment: Primary qHTS assay for Inhibitors of ovarian cancer metastasis using an organotypic tumor microenvironment (TME) model. Further: nearly all actives have a fitted effect of over 65% in size.
# Settings: SKOV3ip1-GFP adhesion/invasion on 3D omental model, fluorescence; series mostly up to 45.8 µM; activity change, negative = inhibition: at the top concentration
# Description: PI: Ernst Lengyel MD., Ph.D. Department of Obstetrics and Gynecology, Section of Gynecologic Oncology University of Chicago Medicine, Chicago, Illinois. The tumor microenvironment (TME) is a key determinant of metastatic efficiency. We performed a quantitative high-throughput screen (qHTS) of diverse medicinal chemistry tractable scaffolds (44,420 compounds) and pharmacologically active small molecules (386 compounds) using a layered organotypic, robust assay representing the ovarian cancer metastatic TME. This 3D model contains primary human mesothelial cells, fibroblasts, and extracellular matrix, to which fluorescently labeled ovarian cancer cells are added. Initially, 100 compounds inhibiting ovarian cancer adhesion/invasion to the 3D model in a dose-dependent manner were identified. Of those, eight compounds were confirmed active in five high-grade serous ovarian cancer cell lines and were further validated in secondary in vitro and in vivo biological assays. […] Specifically, NCGC00117362 and PP-121 inhibited ovarian cancer adhesion, invasion, and proliferation, whereas milciclib inhibited ovarian cancer invasion and proliferation. […] To evaluate the clinical potential of NCGC00117362, structure - activity relationship studies were performed. […] The three compounds identified have promise as therapeutics for prevention and treatment of ovarian cancer metastasis.
# PROTOCOL TABLE (as described by Inglese J, Shamu CE and Guy RK. 2007) SEQUENCE No. (e.g., 1, 2, 3, etc.); […] (e.g., Cells, Incubation, Reagent, etc.); VALUE; DESCRIPTION. 1; Cells; 4 uL; primary human omental fibroblast, black, clear bottom, low base, 1536-well Aurora assay plate. 2; Incubation; 48 hr; 37C. 3; Cells; 3 uL; 1,200 SKOV3ip1-GFP cells. 4; Compounds; 23nL; acoustic dispenser. 5; Incubation; 2 hr; room temperature. 6; Incubation; 16 hr; 37C. 7; Wash; 5 uL; 1x PBS. 8; Fixing; 5 uL; 4% paraformaldehyde (PFA). 9; Incubation; 15 min; room temperature 10; Wash, 5 uL; 1x PBS. 11; Detection; Fluorescence, excitation filter 488 nm, emission filter 509 nm. NOTES (numbers refer to Sequence numbers above) 1. For the 1,536-well format, 40 primary human omental fibroblasts and 400 mesothelial cells were seeded with 0.02 µg fibronectin and 0.02 µg collagen type I in 4 µL of growth media (2.3 mm2; Supplementary Fig. S1A). 2. Assay plates were incubated for 48 hours at 37 C. 3. After incubation, 1,200 SKOV3ip1-GFP were seeded in 3 µL of serum-free media (growth media minus FBS) on top of primary human omental cells. 4. Compounds or controls were added to each well immediately after the addition of the cancer cells. Compounds were screened in four doses (0.36-46 µmol/L), and the plates contained the positive control (Tomatine) in eight doses (0.035-75 µmol/L) and DMSO (equal volume controls) 5 - 6. The plates were incubated at room temperature for 2 hours and then at 37 degrees C for 16 hours. 7 - 10. Following incubation, the media were aspirated and each well washed with PBS (5 µL) and then fixed with 4% paraformaldehyde (PFA; 5 µL). After 15 minutes, the PFA solution was aspirated, PBS (5 µL) was added. 11. The number of GFP-labeled cells analyzed using a fluorescent cytometer TTP LabTech Acumen eX3 using 488 nm excitation filter and 509 nm emission filter. Data was normalized to the DMSO treated for negative and Tomatine treated wells for positive control. REFERENCES: Inglese J, Shamu CE and Guy RK, Reporting data from high throughput screening of small molecule libraries, Nature Chemical Biology, 2007, 3(8): 438-441. doi.org/10.1038/nchembio0807-438. Yasgar A, Shinn P, Jadhav A, Auld DS, Michael S, Zheng W, Austin CP, Inglese J and Simeonov A, Compound Management for Quantitative High-Throughput Screening. J. Assoc. Lab. Auto., 2008, 13: 79-89. doi: 10.1016/j.jala.2007.12.004.
Compound,outcome,"activity change, negative = inhibition"
O=C1c2ccccc2-c2onc3c(Br)cc(NC4CCCCC4)c1c23,inactive,–
CCN(CC)c1ccc(NC(=O)C(NS(=O)(=O)c2cccs2)C(C)C)c(C)c1 (centres undefined),–,inactive: -0.627%
O=C(OCc1ccccc1F)c1ccc(-c2nnn(Cc3ccccc3)n2)cc1,–,inactive: -2.96%
Cc1cc2c(cc1S(=O)(=O)CCC(=O)NCc1ccccc1)OCC(=O)N2,–,inactive: 43.7%
Cc1c(CC(=O)N2CCCCC2)c(=O)oc2c(C)c(O)ccc12,–,inactive: -26.5%
O=C(Cc1ccccc1)NC1CC(=O)N(c2ccc3c(c2)OCCO3)C1 (centres undefined),–,inactive: -3.69%
COc1ccc(-n2nnnc2C2CCN(S(=O)(=O)c3cccc(Cl)c3C)CC2)cc1,–,inactive: -15.3%
CN(C(=O)c1cnc(N2CCOCC2)c2ccccc12)c1ccccc1F,inactive,–
Cc1ccc(NC(=O)CSc2nnc(C)n3c2cc2sccc23)c(C)c1,–,inactive: 0.445%
CCOc1ccccc1NC(=O)CSc1nnc(N)s1,–,inactive: -7.67%
COc1cccc(NC(=O)CSc2nc3c([nH]c4ccccc43)c(=O)n2-c2ccccc2)c1,–,inactive: -2.1%
Cc1ccccc1-c1nnc(CN2CCN(c3cccc(C)c3C)CC2)o1,–,inactive: 4.32%
Brc1ccc(-c2nnc3sc(CN4CCCCC4)cn23)cc1,inactive,–
COc1cc(C(=O)NCC(c2cccnc2)N2CCc3ccccc3C2)cc(OC)c1OC (centres undefined),inactive,–
CCC(=O)Nc1ccccc1-c1nc2ccccc2n(CC(=O)c2ccc(C)c(C)c2)c1=O,–,inactive: -7.84%
O=S(=O)(Nc1cccc(-c2ccc(N3CCCCCC3)nn2)c1)c1ccccc1F,–,inactive: 2.87%
CC(C)(C)NC(=O)c1cnn(-c2ccccc2)c1C1CCN(C(=O)OC(C)(C)C)CC1,inactive,–
O=C(NCc1ccccc1Cl)c1cc2c(s1)-c1ccccc1SC2,–,inactive: -2.2%
O=C(Cn1ncc2c3ccccc3n(Cc3ccccc3F)c2c1=O)NC1CCCCCC1,–,inactive: -23.1%
Cc1ccc(CSc2ccc(-c3cccs3)nn2)cc1,–,inactive: 7.31%
COCCNC(=O)C(=O)NCC(c1cccnc1)N1CCN(c2ccccc2OC)CC1 (centres undefined),–,inactive: 4.44%
Cc1ccc(-c2cc(-c3ccc4c(c3)NC(=O)CO4)nc3c2COc2ccc(C)cc2-3)cc1,–,inactive: 4.13%
Cc1nc2nc(SCc3c(F)cccc3Cl)nn2c(C)c1Cc1ccccc1,–,inactive: -9.21%
CN(C)S(=O)(=O)c1ccc(C(=O)NCCS(=O)(=O)N2CCN(c3ccccc3)CC2)cc1,–,inactive: -19.1%
COc1cc(C2c3c(-c4c(C)cc(C)cc4O)n[nH]c3C(=O)N2CCO)cc(OC)c1OC (centres undefined),–,inactive: 6.53%

Compound,outcome,"activity change, negative = inhibition"
O=C(CN1C(=O)COc2ccc(S(=O)(=O)N3CCOCC3)cc21)N1CCN(c2cccc(C(F)(F)F)c2)CC1,–,inactive: -5.39%
Cc1oc2ncn(C)c(=O)c2c1C(=O)Nc1ccccn1,inactive,–
CCc1nc2sc3c(N4CCC(C)CC4)ncnc3c2c2c1CCCC2,–,inactive: 1.17%
Cc1ccc(CN(C(=O)COc2ccc(Cl)c(C)c2)c2ccccn2)o1,–,inactive: 1.27%
Cc1ccc(C(=O)/C=C/c2cn(CC(O)CN3CCc4ccccc43)c3ccccc23)cc1 (centres undefined),–,inactive: -10.9%
COc1ccc(OC)c(CNC(=O)c2cc3cc4ccc(OC)cc4nc3o2)c1,–,inactive: 14.2%
COc1ccc(-c2noc(COc3cc(C)c(Br)c(C)c3)n2)cc1OC,–,inactive: 1.27%
Cc1cc(NC(=O)c2ccccc2Cl)ccc1NC(=O)c1ccccc1,–,inactive: -22.5%
Cc1ccc(-c2nn(CC(=O)NC3CCCC3)c3c2cnc2ccc(F)cc23)cc1C,inactive,–
Cc1cc(S(=O)(=O)C(CNC(=O)COc2ccccc2)c2cccs2)ccc1F (centres undefined),–,inactive: 5.17%
CCOc1cc2sc(N3CCC(C(=O)Nc4ccccc4Cl)CC3)nc2cc1Br,–,inactive: 2.92%
COc1ccccc1Cn1cc(C(=O)c2ccc(Cl)cc2)c(=O)c2cc3c(cc21)OCCO3,–,inactive: 0.241%
COc1ccc(Oc2nc3c(c(=O)n(C)c(=O)n3C)n2Cc2ccccc2Cl)cc1,inactive,–
COc1ccc(OCCSc2nc(C)c(Cc3ccccc3)c(=O)[nH]2)cc1,–,inactive: 11.2%
O=C(Nc1ccc2nc(SCc3ccccc3)sc2c1)c1cccc(F)c1,inactive,–
COc1ccc(NC(=O)CCN2CCN(CCO)CC2)c(OC)c1,–,inactive: 1.06%
CS(=O)(=O)Oc1ccc2c(NC(N)=O)c(C(=O)c3ccc(Cl)cc3Cl)oc2c1,–,inactive: 1.19%
CCOc1cc(C(=O)Nc2nnc3n2CCS3)cc(OCC)c1OCC,–,inactive: 19%
CCOc1ccc(C(=O)CSc2nnc3cc(C)c4ccccc4n23)cc1,–,inactive: -11.5%
Cc1ccccc1C(=O)Nc1nnc(SCc2cc(=O)n3ccccc3n2)s1,–,inactive: -1.33%
COc1ccc(-c2noc(N3CCN(c4cccc(Cl)c4)CC3)n2)cc1OC,–,inactive: 1.56%
CC(C(=O)Nc1ccc(F)c(Cl)c1)N1Cc2ccccc2C1=O (centres undefined),–,inactive: -5.19%
CCSc1oc(-c2ccc(F)cc2)nc1S(=O)(=O)c1ccc(C)cc1,–,inactive: -5.4%
Cc1cc(OCC(=O)Nc2cc(-c3nc4ccccc4[nH]3)ccc2C)ccc1Cl,inactive,–

# Reference: PubChem BioAssay AID1963576 (National Center for Advancing Translational Sciences (NCATS), 2024)
